The text below walks through data of PMC9911399, “Two distinct binding modes provide the RNA-binding protein RbFox with extraordinary sequence specificity”.

The labels stand for the following.
T1: RBFOX1 RRM (Homo sapiens, UniProt Q9NWB1 109-208)
T1 sequence: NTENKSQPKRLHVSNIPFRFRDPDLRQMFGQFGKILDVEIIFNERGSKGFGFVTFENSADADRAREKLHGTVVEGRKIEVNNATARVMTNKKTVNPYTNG

B1: AUUUGCU (DNA:RNA)
RNA: GGGAGACCGGAAUUCAGAUUGUCCAUUUGCUUUAAAUCCCGUCGUAGCCACCA
DNA 1: CAATCTGAATTCCGGTCTCCC
DNA 2: TGGTGGCTACGACGGGATT
B2: GCAGUGC (DNA:RNA)
RNA: GGGAGACCGGAAUUCAGAUUGUCCGCAGUGCUUAAAUCCCGUCGUAGCCACCA
DNA 1: CAATCTGAATTCCGGTCTCCC
DNA 2: TGGTGGCTACGACGGGATT
B3: GACCGCA (DNA:RNA)
RNA: B1 RNA with A25G, U26A, U27C, U28C, U31A
DNA 1: CAATCTGAATTCCGGTCTCCC
DNA 2: TGGTGGCTACGACGGGATT
B4: CCUGUAC (DNA:RNA)
RNA: B2 RNA with G25C, A27U, G30A
DNA 1: CAATCTGAATTCCGGTCTCCC
DNA 2: TGGTGGCTACGACGGGATT
B5: UGGUAGC (DNA:RNA)
RNA: B2 RNA with G25U, C26G, A27G, G28U, U29A
DNA 1: CAATCTGAATTCCGGTCTCCC
DNA 2: TGGTGGCTACGACGGGATT
B6: CGAUCGU (DNA:RNA)
RNA: B1 RNA with A25C, U26G, U27A, G29C, C30G
DNA 1: CAATCTGAATTCCGGTCTCCC
DNA 2: TGGTGGCTACGACGGGATT
B7: CUAGACG (DNA:RNA)
RNA: B1 RNA with A25C, U27A, U28G, G29A, U31G
DNA 1: CAATCTGAATTCCGGTCTCCC
DNA 2: TGGTGGCTACGACGGGATT
B8: UUAUAUU (DNA:RNA)
RNA: B1 RNA with A25U, U27A, G29A, C30U
DNA 1: CAATCTGAATTCCGGTCTCCC
DNA 2: TGGTGGCTACGACGGGATT
B9: AAUGGGC (DNA:RNA)
RNA: B1 RNA with U26A, U28G, C30G, U31C
DNA 1: CAATCTGAATTCCGGTCTCCC
DNA 2: TGGTGGCTACGACGGGATT
B10: UGUCACC (DNA:RNA)
RNA: B1 RNA with A25U, U26G, U28C, G29A, U31C
DNA 1: CAATCTGAATTCCGGTCTCCC
DNA 2: TGGTGGCTACGACGGGATT
B11: UUGAGGG (DNA:RNA)
RNA: B1 RNA with A25U, U27G, U28A, C30G, U31G
DNA 1: CAATCTGAATTCCGGTCTCCC
DNA 2: TGGTGGCTACGACGGGATT
B12: AAAUGUA (DNA:RNA)
RNA: B1 RNA with U26A, U27A, C30U, U31A
DNA 1: CAATCTGAATTCCGGTCTCCC
DNA 2: TGGTGGCTACGACGGGATT
B13: CCGUCAG (DNA:RNA)
RNA: B1 RNA with A25C, U26C, U27G, G29C, C30A, U31G
DNA 1: CAATCTGAATTCCGGTCTCCC
DNA 2: TGGTGGCTACGACGGGATT
B14: GAGCCUG (DNA:RNA)
RNA: B2 RNA with C26A, A27G, G28C, U29C, G30U, C31G
DNA 1: CAATCTGAATTCCGGTCTCCC
DNA 2: TGGTGGCTACGACGGGATT
B15: AGCGGAA (DNA:RNA)
RNA: B1 RNA with U26G, U27C, U28G, C30A, U31A
DNA 1: CAATCTGAATTCCGGTCTCCC
DNA 2: TGGTGGCTACGACGGGATT
B16: GAAGGAC (DNA:RNA)
RNA: B2 RNA with C26A, U29G, G30A
DNA 1: CAATCTGAATTCCGGTCTCCC
DNA 2: TGGTGGCTACGACGGGATT
B17: GGUAGCG (DNA:RNA)
RNA: B1 RNA with A25G, U26G, U28A, U31G
DNA 1: CAATCTGAATTCCGGTCTCCC
DNA 2: TGGTGGCTACGACGGGATT
B18: CGGGCGG (DNA:RNA)
RNA: B2 RNA with G25C, C26G, A27G, U29C, C31G
DNA 1: CAATCTGAATTCCGGTCTCCC
DNA 2: TGGTGGCTACGACGGGATT
B19: UAUAGUC (DNA:RNA)
RNA: B1 RNA with A25U, U26A, U28A, C30U, U31C
DNA 1: CAATCTGAATTCCGGTCTCCC
DNA 2: TGGTGGCTACGACGGGATT
B20: GCUUUCU (DNA:RNA)
RNA: B1 RNA with A25G, U26C, G29U
DNA 1: CAATCTGAATTCCGGTCTCCC
DNA 2: TGGTGGCTACGACGGGATT

Numbering of substitutions follows the chain as printed; changes in the protein carry UniProt numbers. The list shows a part of the results.

The target in this assay is T1, RBFOX1 RRM. The assay can be described thus: EMSA; HiTS-Eq, 1 nM pool, 10 min; buffer printed only for the single-RNA assays: 10 mM Tris pH 7.5, 150 mM NaCl, 3.4 mM EDTA, 0.001% NP-40, 30 C. Conditions: tags: His6 N-terminal (pET28a); label: 5' 32P. An outline of the steps:
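Purified RbFox RRM (wild type or mutant) was equilibrated for 10 min in 50 µL with 1 nM of a 5′-radiolabelled pool of RNA with 7 randomized nucleotides, its flanks annealed to DNA oligonucleotides, across increasing protein concentrations. Free RNA was separated by 8% native PAGE, excised, reverse-transcribed, PCR-barcoded and sequenced on an Illumina HiSeq 2500. Relative association constants came from read-count changes of each variant against the control reaction, normalised to the cognate motif.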
Background: In EMSA bound probe runs differently from free probe, usually more slowly.
As for B1, the binding signal was 0.014 KA relative to UGCAUGU.
For B2, the binding signal is 0.0169 KA relative to UGCAUGU.
In the case of B3 it was 0.0106 KA relative to UGCAUGU; in that of B4, 0.00765 KA relative to UGCAUGU.
To B5 belongs 0.0193 KA relative to UGCAUGU; to B6, 0.0178 KA relative to UGCAUGU.
To B7 belongs 0.0055 KA relative to UGCAUGU; to B8, 0.00153 KA relative to UGCAUGU; to B9, 0.0114 KA relative to UGCAUGU.
In the case of B10, the binding signal is 0.0116 KA relative to UGCAUGU.
On to B11, for which the binding signal was 0.00788 KA relative to UGCAUGU.
As to B12, the binding signal is 0.00248 KA relative to UGCAUGU.
On to B13, for which the binding signal was 0.00788 KA relative to UGCAUGU.
For B14, the binding signal is 0.0276 KA relative to UGCAUGU.
For B15, the binding signal is 0.00977 KA relative to UGCAUGU.
In the case of B16 it was 0.00264 KA relative to UGCAUGU; in that of B17, 0.0072 KA relative to UGCAUGU.
For the molecule B18, the binding signal is 0.0199 KA relative to UGCAUGU.
To B19 belongs 0.0098 KA relative to UGCAUGU; to B20, 0.0146 KA relative to UGCAUGU.
